Source: a collection of fitness landscapes (doi:10.1126/science.1257360)
The other results are listed elsewhere or left out.

B1: PhoQ; a variant is named by its letters at X, in order, P23837 (parent)
chain: MKKLLRLFFPLSLRVRFLLATAAVVLVLSLAYGMVALIGYSVSFDKTTFRLLRGESNLFYTLAKWENNKLHVELPENIDKQSPTMTLIYDENGQLLWAQRDVPWLMKMIQPDWLKSNGFHEIEADVNDTSLLLSGDHSIQQQLQEVREDDDDAEMTHSVAVNVYPATSRMPKLTIVVVDTIPVELKSSYMVWSWFIYVLSANLLLVIPLLWVAAWWSLRPIEALAKEVRELEEHNRELLNPATTRELTSLVRNLNRLLKSERERYDKYRTTLTDLTHSLKTPLXXLQXXLRSLRSEKMSVSDAEPVMLEQISRISQQIGYYLHRASMRGGTLLSRELHPVAPLLDNLTSALNKVYQRKGVNISLDISPEISFVGEQNDFVEVMGNVLDNACKYCLEFVEISARQTDEHLYIVVEDDGPGIPLSKREVIFDRGQRVDTLRPGQGVGLAVAREITEQYEGKIVAGESMLGGARMEVIFGRQHSAPKDE

Variants of: B1
Assay: enrichment ratio after two sorts for PhoP signalling (ratio (wild type AVST 3.29)); higher = more functional
Settings: with PhoP (E. coli)

Variant | enrichment ratio
THYS | ≤ 0.25
RREF | ≤ 0.25
AEQS | ≤ 0.25
DKQV | ≤ 0.25
EFWF | ≤ 0.25
HERM | ≤ 0.25
SADF | ≤ 0.25
QALL | 11.2
VHWS | ≤ 0.25
GRRI | ≤ 0.25
IRLA | 0.272
MVVC | ≤ 0.25
GRDT | ≤ 0.25
KTRS | ≤ 0.25
QGRD | ≤ 0.25
VSKL | ≤ 0.25
LRRL | ≤ 0.25
FPSD | ≤ 0.25
YWDF | ≤ 0.25
HTNG | 5.74
IGWT | 0.459
TVTI | 7.06
FRIC | ≤ 0.25
HMWD | ≤ 0.25
DGYY | ≤ 0.25

Variant | enrichment ratio
EMRE | ≤ 0.25
QEMT | 5.12
YHQY | ≤ 0.25
PDQG | ≤ 0.25
NFYY | ≤ 0.25
DKRY | ≤ 0.25
ITLF | 1.07
PKDQ | ≤ 0.25
GTSA | ≤ 0.25
VFPG | ≤ 0.25
ELCQ | ≤ 0.25
MMIT | ≤ 0.25
WLCT | ≤ 0.25
DNEP | ≤ 0.25
WPWL | ≤ 0.25
SHSH | 0.368
GFKH | ≤ 0.25
KAPT | ≤ 0.25
MFQC | ≤ 0.25
VHRP | ≤ 0.25
LQNS | ≤ 0.25
ATHR | ≤ 0.25
HLVT | ≤ 0.25
IWVC | ≤ 0.25
IWIS | ≤ 0.25

Variant | enrichment ratio
ESLN | ≤ 0.25
YIVV | ≤ 0.25
FPEN | ≤ 0.25
DYFH | ≤ 0.25
TDHR | ≤ 0.25
EDTC | ≤ 0.25
FMFV | ≤ 0.25
DAHE | ≤ 0.25
LRSL | ≤ 0.25
AQMH | ≤ 0.25
RAER | ≤ 0.25
MYFG | ≤ 0.25
LNFQ | ≤ 0.25
LFVS | ≤ 0.25
YVAK | ≤ 0.25
MLPV | ≤ 0.25
ASSW | ≤ 0.25
LCCG | ≤ 0.25
SDET | ≤ 0.25
GATL | 6.3
VLYS | ≤ 0.25
YLRH | ≤ 0.25
KALY | ≤ 0.25
GCVH | ≤ 0.25
WPFA | ≤ 0.25

Variant | enrichment ratio
TEID | ≤ 0.25
KRKV | ≤ 0.25
GYAI | ≤ 0.25
SFHY | ≤ 0.25
LPIW | ≤ 0.25
EGPY | ≤ 0.25
RWMG | ≤ 0.25
NEQL | ≤ 0.25
INDR | ≤ 0.25
PHQD | ≤ 0.25
IHHN | ≤ 0.25
ESRN | ≤ 0.25
YLQI | 0.285
TSAV | 16.5
GRMS | ≤ 0.25
WIRH | ≤ 0.25
VDLP | ≤ 0.25
YQCW | ≤ 0.25
SSWE | ≤ 0.25
FVIV | ≤ 0.25
TNRL | ≤ 0.25
TELL | 16.9
SETL | 14.8
LLAY | ≤ 0.25
TFQM | ≤ 0.25

Variant | enrichment ratio
EAKP | ≤ 0.25
YTPV | ≤ 0.25
TMPG | ≤ 0.25
PWYT | ≤ 0.25
IRHE | ≤ 0.25
LFFH | ≤ 0.25
WYGA | ≤ 0.25
SHHC | ≤ 0.25
SQAE | ≤ 0.25
AMAA | 1.39
PQTE | ≤ 0.25
DLRY | ≤ 0.25
YSGV | ≤ 0.25
GFNE | ≤ 0.25
VDAR | ≤ 0.25
NKNC | ≤ 0.25
MGQP | ≤ 0.25
ICCK | ≤ 0.25
SEVY | 3.24
KATM | ≤ 0.25
MKYG | ≤ 0.25
FYCI | ≤ 0.25
ECME | ≤ 0.25
YEDV | ≤ 0.25
KKKA | ≤ 0.25

Variant | enrichment ratio
WTLN | ≤ 0.25
TWSN | ≤ 0.25
TGWY | 7.1
AYMV | 0.333
KVKG | ≤ 0.25
HHLF | ≤ 0.25
MRKW | ≤ 0.25
EFPA | ≤ 0.25
ARDT | ≤ 0.25
LNHI | ≤ 0.25
KRLQ | ≤ 0.25
CLDF | ≤ 0.25
TVAA | 20.7
EPVL | ≤ 0.25
LYIG | ≤ 0.25
KKFK | ≤ 0.25
ERRL | ≤ 0.25
YTIA | ≤ 0.25
IAQL | ≤ 0.25
GPFS | ≤ 0.25
NCVM | ≤ 0.25
RCCL | ≤ 0.25
IFRR | ≤ 0.25
DKEV | ≤ 0.25
WTIN | ≤ 0.25

Variant | enrichment ratio
VERW | ≤ 0.25
TQME | 17.2
TKMC | 77.6
FIDW | ≤ 0.25
VTVD | ≤ 0.25
ILRA | ≤ 0.25
SRPH | ≤ 0.25
ANGT | 4.82
FERH | ≤ 0.25
FYYY | ≤ 0.25
WWCS | ≤ 0.25
NHPT | ≤ 0.25
ESAG | ≤ 0.25
SSGP | ≤ 0.25
TPDL | ≤ 0.25
PCTK | ≤ 0.25
NFSR | ≤ 0.25
VVSA | ≤ 0.25
AATN | 8
LLLL | ≤ 0.25
IWED | ≤ 0.25
CRLN | ≤ 0.25
VRVQ | ≤ 0.25
LEGD | ≤ 0.25
FNDD | ≤ 0.25

Variant | enrichment ratio
GQAV | ≤ 0.25
MMIW | ≤ 0.25
WFTQ | ≤ 0.25
PPWM | ≤ 0.25
YIAK | ≤ 0.25
YECE | ≤ 0.25
RYQC | ≤ 0.25
AWNH | ≤ 0.25
IHPN | ≤ 0.25
DKPE | ≤ 0.25
IQTI | ≤ 0.25
PKEL | ≤ 0.25
LNQW | ≤ 0.25
TIVR | ≤ 0.25
YLPI | ≤ 0.25
NLRN | ≤ 0.25
IQWF | ≤ 0.25
SFIA | ≤ 0.25
NNDF | ≤ 0.25
MQSG | 1.28
